Among all 150,000 compounds or so, about 540 (0.36%) showed an effect of 50% or more. The list shows a part of the results.
System: Plasmodium falciparum
Test: Primary screen in NF54 nanoGlo assay, in single point, at 2uM, 72h; a lower Z score goes with more inhibition
Assay type: functional, Erythrocyte
Conditions: timepoint 72 hour

| Structure (SMILES) | % Inhibition | Z score |
| --- | --- | --- |
| COc1ccc(S(=O)(=O)N(CC(=O)N2CCc3sccc3[C@@H]2COc2ccc(Cl)c(C)c2)C(C)C)cc1 | -14% | 1.28 |
| O=C(c1noc2c1CCCC2)N1CCN(c2cccc(Cl)c2)CC1 | 2% | -0.34 |
| CC(=O)NCCc1csc(C2CCN(C(=O)NCc3cccc(F)c3)CC2)n1 | 3% | -0.5 |
| COc1cc(OC)cc(-n2c(CCC(=O)NCCOc3ccccc3)cc3c2-c2ccccc2CC3)c1 | -18% | 1.59 |
| Cc1cc(OC2CCN(C(=O)CN3C(=O)CCC3=O)CC2)nc(C)n1 | -7% | 1.4 |
| CCCC1(CO)CCN(CC[C@H]2CC2(F)F)CC1 | -5% | 0.83 |
| Cc1nc(CN(C)C(=O)C2(c3ccccc3)CCOCC2)no1 | -8% | 1.46 |
| CCc1n[nH]cc1C(=O)NC1(COC)CCCC1 | -5% | 0.94 |
| O=C(N1CCC(CCO)C1)[C@]12CCC[C@H]1CN(Cc1ccccc1)C2 (stereo partly specified) | -22% | 2.8 |
| c1cnc(N[C@H]2CCC[C@H]2Cn2ccnn2)nc1 | -3% | 0.51 |
| Cc1nc(-c2cc3cccc(C)c3nc2NCCc2ccccn2)no1 | -10% | 1.84 |
| CC(=O)Oc1c(-c2ccc(NC(=O)c3ccccc3)cc2)c(-c2cccc(C)c2)nn1-c1cccc(F)c1 | 3% | -0.37 |
| Cc1ccc(C)c(OCCN(C)CCn2nccc2C)c1 | 4% | -0.71 |
| CCN1C(=O)[C@@]2(c3ccccc31)[C@@H]1C(=O)N(Cc3ccccc3)C(=O)[C@@H]1[C@@H]1CCCN12 | -9% | 1.2 |
| O=c1[nH]c2c(cnn2Cc2ccccc2)c(O)c1-c1nc(-c2ccc(F)cc2)no1 | -10% | 1.05 |
| COc1nc(NCCCOC2CCCC2)ncc1F | -9% | 1.07 |
| O=C(Cn1c(=O)n(CC2CC2)c2ccc(C(=O)O)cc21)NCc1cccs1 | -9% | 1.53 |
| CC1CCCN(C(=O)NC(c2ccccc2)c2cc3ccccc3o2)C1 (stereo unspecified) | 0% | 0.02 |
| O=C(NC[C@@]12CCCC=C1N(CC1CC1)C(=O)CC2)c1ccc2ccccc2n1 | -15% | 2.2 |
| C[C@H]1CN(Cc2ccccc2C(=O)O)C[C@]1(O)C1CC1 | 5% | -0.79 |
| CC(C)CN1CCN([C@H]2CCOC3(CCN(C(=O)CCc4ccccc4)CC3)C2)CC1 | -28% | 2.96 |

| Structure (SMILES) | % Inhibition | Z score |
| --- | --- | --- |
| COc1ccccc1N1CC[C@H](N2CCc3nc[nH]c3C23CCOCC3)C1=O | 1% | -0.1 |
| Cc1nc2c(c(=O)n1CC(=O)Nc1ccc(F)cc1Cl)CN(Cc1ccccc1)CC2 | -2% | 0.3 |
| Cc1nccn1C1CN(C(=O)[C@H](C)Oc2ccccc2)C1 | -14% | 1.79 |
| CNC(=O)[C@@H]1CN(C(=O)c2ccccn2)C[C@H]1COC | -3% | 0.46 |
| Cc1nn(C)c(C)c1CN(C)c1cc(C2CC(N)C2)nc(C2CC2)n1 (stereo unspecified) | 8% | -1.35 |
| Cc1ccc(CNC(=O)CNC(=O)c2cscn2)nc1C | 31% | -3.52 |
| Cc1ccccc1C(=O)N1CCC[C@H](Oc2ncccn2)C1 | 2% | -0.31 |
| CC(C)=CCN1CCN(C(=O)c2cc3ccccc3[nH]2)[C@H]2CS(=O)(=O)C[C@H]21 | -9% | 1.79 |
| O=C(Nc1ccc(F)c(Cl)c1)N1CCC[C@H](Cn2c(C3CC3)nc3cccnc32)C1 | 2% | -0.37 |
| Cc1c(C(=O)N[C@H]2CCCc3ccccc32)sc2ncnc(N3CCCCCC3)c12 | -19% | 1.78 |
| O=C(c1ccc(N2CCCC2=O)cc1)N1CCC[C@H](c2nc3ccccc3s2)C1 | -24% | 3.46 |
| Cc1ccc(C(=O)N[C@@H](C)c2ncc(C(=O)O)s2)s1 | 1% | -0.24 |
| Cc1cc(-c2nc3cccnc3s2)ccc1NS(=O)(=O)c1c(C)n[nH]c1C | -8% | 1.46 |
| Cn1nccc1C(=O)N1CCC[C@H](CCc2ccccc2)C1 | -13% | 2.52 |
| COCCc1nc(Cn2nccn2)n(-c2cccc3c2CCC3)n1 | -19% | 2 |
| CCO[C@@H](C)C(=O)NCc1ccncc1 | -6% | 0.68 |
| CCc1ccc(CN2CC[C@@](O)(CO)C2)s1 | -11% | 1.75 |
| CN(C)C(=O)NCc1cc2n(n1)CCCN(Cc1ccc3occc3c1)C2 | 10% | -1.36 |
| COc1cc(OC)cc([C@H]2CCN(C(=O)c3ccoc3)C2)c1 | -1% | 0.11 |
| COc1ccc(-c2noc(CN(C)C(C)C)n2)nn1 | -3% | 0.55 |
| COc1cc(NC(=O)N2CC[C@H](c3nnc(C)o3)C2)cc(OC)c1 | 33% | -3.78 |

| Structure (SMILES) | % Inhibition | Z score |
| --- | --- | --- |
| CC[C@](C)(NCC#Cc1ccc(C(F)(F)F)cc1)C(N)=O | 36% | -4.06 |
| N#Cc1nnc2ccccc2c1Oc1ccc2ncccc2c1 | -12% | 2.3 |
| CC[C@H](NCc1n[nH]c(N)n1)C1CCCC1 | 2% | -0.36 |
| C[C@H](Oc1ccccc1)C(=O)N1CCC(Oc2cccc3cccnc23)CC1 | -9% | 1.73 |
| CCN1CC[C@@]2(CCC1=O)CN(C(=O)c1ccc[nH]1)CCN2C | -16% | 1.45 |
| Cc1ccc(-c2nn(C)cc2C(=O)Nc2nccnc2C(C)C)o1 | -1% | 0.14 |
| COc1ccc(-c2cc(CN(CC(C)C)C(=O)c3ccco3)no2)c(OC)c1 | -9% | 1.13 |
| Cc1cnccc1CNC(=O)COC1CCCCC1C (stereo unspecified) | -13% | 2.24 |
| Cc1oc(-c2ccc(-c3ccccc3)cc2)nc1CN1CCCC[C@@H]1CCCO | -10% | 1.58 |
| CN1CC2(C[C@H]1c1noc(-c3ccccn3)n1)CN(C(=O)CCC1CCCC1)C2 | -15% | 1.7 |
| O=S1(=O)CCN(c2ccccc2-c2nc(-c3cccnn3)no2)CC1 | -15% | 2.56 |
| CC1CCCC(NC(=O)C(C)N2CCCC(Cn3cncn3)C2)C1C (stereo unspecified) | 1% | -0.12 |
| CN(Cc1nccn1Cc1ccccc1)C(=O)CCC(=O)Nc1nncs1 | -8% | 1.29 |
| COCCCN(Cc1ccnc(C(C)C)n1)C1CCN(C)CC1 | -8% | 1.01 |
| CCn1nc(C)c(C(=O)N2C[C@H]3CC[C@@H](C2)N(CC2CC2)C3)c1C | 0% | 0.03 |
| CO[C@H]1CN(c2ncnc3ccccc23)C[C@@H]1O | -4% | 0.68 |
| COCCC[C@H]1CCCCN1C(=O)c1ccc(OC)c(N2CCOCC2)c1 | -8% | 0.99 |
| CC(C)(C)c1cc(=O)n(Cc2cccc(C(=O)Nc3ccccc3)c2)cn1 | 3% | -0.32 |
| CCN(CC)CC(=O)Nc1nc(C)ns1 | -10% | 1.27 |
| Cc1nn(CC(F)F)cc1C(=O)N(C)[C@H]1CCN(C)C1=O | -4% | 0.53 |
| Cn1cc(CN[C@H]2[C@H](O)[C@H](O)C[C@@H]2c2ccc(C(F)(F)F)cc2)cn1 | -12% | 1.49 |

| Structure (SMILES) | % Inhibition | Z score |
| --- | --- | --- |
| C[C@@]1(CO)CN(Cc2ccccc2)C[C@@H]2CN(C(=O)C3CCCCC3)CCN21 | -16% | 2.43 |
| O=C(NCc1nccnc1-c1ccco1)c1ccco1 | -2% | 0.42 |
| O=C(Nc1ccc2ccccc2c1)N(Cc1ccccc1)c1ccccc1 | 3% | -0.6 |
| CN1c2ccccc2N(C2CCN(C(=O)c3cccc(-n4cnnn4)c3)CC2)S1(=O)=O | -5% | 0.55 |
| CC1CCCCC1NC(=O)c1cc2sccc2n1Cc1ccc(F)cc1 (stereo unspecified) | -3% | 0.59 |
| O=S(=O)(Cc1noc(C2CC2)n1)NCCOC1CCCCCC1 | -6% | 1.05 |
| CCCNC(=O)c1cc(C)c(CC)s1 | -16% | 1.51 |
| O=C(C1CCOCC1)N1CCC[C@H](CCc2ccccc2)C1 | 1% | -0.09 |
| CCOC(=O)c1cc(C2CC2)nc2c1c(=O)n(CC(=O)N1CCCC[C@@H]1C)c(=O)n2C | -10% | 1.45 |
| CN(CC(=O)Nc1ccc(-n2cnnn2)cc1)c1nc2c(Cl)cccc2s1 | -11% | 2.16 |
| COC(=O)N(C)CCCC(=O)Nc1ccccc1-c1ncco1 | -3% | 0.42 |
| CCCS(=O)(=O)N1C[C@H](C(=O)NCCc2ccncc2)C2(CCOCC2)C1 | -3% | 0.57 |
| Cc1ccc(C(=O)N2CCC(n3cc(N(C)C)cn3)CC2)c(Cl)c1 | -4% | 0.48 |
| COc1cccc(Cn2cccc(NC(=O)[C@@]3(C)CC3(F)F)c2=O)n1 | 0% | -0.09 |
| COc1ccc(Nc2nc(C)c(NC(=O)c3ccccc3)c(Nc3ccc(OC)cc3)n2)cc1 | -12% | 2.3 |
| CN(CC1(CO)CCCC1)C(=O)c1ccc(CCC(C)(C)O)cc1 | -15% | 2.19 |
| CCn1ccc([C@H](C)NC(=O)c2cc(-c3ccc(OC)cc3)nc3c2c(C)nn3C)n1 | 38% | -1.08 |
| C[C@H](O)CN1CC2(CCC1=O)CCN(C(=O)c1ccc(CO)o1)CC2 | 2% | -0.39 |
| CC(C)c1nsc(CN2CCN(C(=O)CO)CC2)n1 | -2% | 0.34 |
| Cc1ccc(CN2C(=O)N[C@]3(CCCN(C(=O)c4cc5ccccc5[nH]4)C3)C2=O)cc1 | 4% | -0.54 |

From ChEMBL document CHEMBL4888484, “Replenishing the malaria drug discovery pipeline: Screening and hit evaluation of the MMV Hit Generation Library 1 (HGL1) against asexual blood stage Plasmodium falciparum ,using a nano luciferase reporter read-out” (2022)
